# Results taken from the RNAGym collection of RNA variant scans (doi:10.1073/pnas.2313332121).
# This sample is rich in variants without activity.
# B1: TPR 5TU (parent)
# chain: GGAUCUUCUCGAUCUAACAAAAAAGACAAAUCUGCCACAAAGCUUGAGAGCAUCUUCGGAUGCAGAGGCGGCAGCCUUCGGUGGCGCGAUAGCGCCAACGUUCUCAACUAUGACACGCAAAACGCGUGCUCCGUUGAAUGGAGUUUAUCAUG
# Variants of: B1
# Test: polymerase ribozyme fitness, log enrichment relative to wild type (log ratio); higher = more active; in vitro selection for triplet polymerase activity
# Outline: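 Each subunit of a heterodimeric triplet polymerase ribozyme was represented by a PCR-built, transcribed mutant library that underwent triplicate single-round in vitro selection with frozen incubation at −7 °C. Extended constructs were recovered by gel excision, streptavidin-bead capture and RT-PCR, and Illumina sequencing of input and output libraries kept genotypes with ≥10 input reads and ≥1 read per output. Fitness is the logarithm of genotype enrichment relative to wild-type enrichment, from inverse-variance-weighted replicate averages, with a logarithm base of 2.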
row,Variant,polymerase ribozyme fitness (log ratio)
1,GGAUCUUCUCGAUCUAACAAAAAAGACAAAUCUGCCACAAAGCUUGAGAGCAUCUUUGGAUGCAGAGGCUGCAGCCUUCGGUGGCGCGAUAGCGCCAACGUUCUCAACUAUGACACGCAAAACGCGUGCUCCUUUGAAAUGAGUUUAUCAUG,≤ -4.2
2,GGAUCUUCUCGAUCUAACAAAAAAGACAAAUCUGCCACAAAGCUUGAGAGCAUCUUUGGAUGCAGAGGCGGCAACCUUCGGUGGCGCGAUAGCGCCAACGUUCUCAACUAUGACACGCAAAACGUGUGCUCCGUUGAAUGGAGUUUAUGAUG,≤ -4.2
3,GGAUCUUCUCGAUCUAACAAAAAAGACAAAUCUGCCACAAAGCUUGAGAGCAUCUUUGGAUGCAGAGGCGGCAGCCUUCGGUGGCCCGAUAGCCCCAACGUUCUCAACUAUGACACGCAAAACGCGUGCUCCGUUGAAUGGAGUUUAUCAUG,≤ -4.2
4,GGAUCUUCUCGAUCUAACAAAAAAGACAAAUCUGCCACAAAGCUUGAGAGCAUCUUUGGAUGCAGAGGCGGCAGCCUUCGGUGGCGCGAUACCGCCCACGUUCUCAACUAUGACACGCAAAACGCGUGCUCCGUUGAAUGGAGUAUAUCAUG,0.369
5,GGAUCUUCUCGAUCUAACAAAAAAGACAAAUCUGCCACAAAGCUUGAGAGCAUCUUUGGAUGCAGAGGCGGCAGCCUUCGGUGGCGCGAUAGCUCCAACGUUCUCAACUAUGACACGCAAAACGCGUGCUCCGUUGAAUGGAGUUUAUCAUG,-0.85
6,GGAUCUUCUCGAUCUAACAAAAAAGACAAAUCUGCCACAAAGCUUGAGAGCAUCUUUGGAAGCCGAGGCGGCAGCCUUCGGUGGCGCGAUAGCACCAACGUUCUCACCUAUGACACGCAAAACGCGUGCUCCGUUGAUUGGAGUUUAUCAUG,≤ -4.2
7,GGAUCUUCUCGAUCUAACAAAAAAGACAAAUCUGCCACAAAGCUUGAGAGCAUCUUUGGAAGCAGAGGCGGCAGCCUUCGCUGGCGCGAUAGCGCCAACGUUCUCAUCUAUGACACGCAAAACGCGUGCUCCGUUGAAUGGAGUUUAUCAUG,≤ -4.2
8,GGAUCUUCUCGAUCUAACAAAAAAGACAAAUCUGCCACAAAGCUUGAGAGCAUCUUUGGAUGCAGAGGCGGCAGCCUACAGUGGCGCGAUAGCGCCAACGUUCUCAACUAUGACACGCAAAACGCGUGCUCCGUUGAGGGGAGUUUAUCAUG,≤ -4.2
9,GGAUCUUCUCGAUCUAACAAAAAAGACAAAUCUGCCACAAAGCUUGAGAGCAUCUUUGGAUGCAGAGGCGGCAGCCUGCGGUGGCGCGAUGGCGCCAACGUUCUCAACUAUGACACGCAAAACGCGUGCUCCGUUGAAUGGAGUUUAUCAUG,≤ -4.2
10,GGAUCUUCUCGAUCUAACAAAAAAGACAAAUCUGCCACAAAGCUUGAGAGCAUCUUUGGAUGCAGAGGCGGCAGCCUUCGGUGGCGCGAUAGCGCCAACGUUCUCAACUAUGACACGCAAAACGCGUGCGUCGUUGAAUGGAGUUUAUCAUG,-4.19
11,GGAUCUUCUCGAUCUAACAAAAAAGACAAAUCUGCCACAAAGCUUGAGAGCAUCUUUGGAUGCAGAGGCGGCAGCCUUCGGUGGCGCGAUAGCGCCAACGUUCUCAACUAUGACACGCAAAACGCGUGCUCCGUGGAAUGGAGUUUAUCAUG,-4.05
12,GGAUCUUCUCGAUCUAACAAAAAAGACAAAUCUGCCACAAAGCUUGAGAGCAUCUUCAGAUGCCGAGGCGGCAGCCUUCGGUGGCGCGAUAGUGCCAACGUUCUCAACUAUGACACGCAAAACGCGUGCUCCGAUGAAUGGAGUUUAUCAUG,≤ -4.2
13,GGAUCUUCUCGAUCUAACAAAAAAGACAAAUCUGCCACAAAGCUUGAGAGCAUCUUCAGAUGCAGAGGCGGCCGCCUUCGGUGGCGGGAUAGCACCAACGUUCUCAACUAUGACACGCAAAACGCGUGCUCCGUUGAAUGGAGUUUAUCAUG,≤ -4.2
14,GGAUCUUCUCGAUCUAACAAAAAAGACAAAUCUGCCACAAAGCUUGAGAGCAUCUUCAGAUGCAGAGGCGGCAGCCUUCGGUGGCGCGAUAGCGCCAACGUUCUCAACUAUGACACGCAACACGCGUGCUCCGUUGAAUGGAGUUUAUCAUG,0.557
15,GGAUCUUCUCGAUCUAACAAAAAAGACAAAUCUGCCACAAAGCUUGAGAGCAUCUUCAGAUGGAGAGGCGGCAGCCUUCGGUGGCUCGAUAGCCCCAACGUUCUCAACUAUGACACGCAAAACGCGUGCUCCGUUGCAUGUAGUUUAUCACG,≤ -4.2
16,GGAUCUUCUCGAUCUAACAAAAAAGACAAAUCUGCCACAAAGCUUGAGAGCAUCUUCAGAUGCAGAGGCGGAAGCCUUCGGAGGCGCGGUAGCGCCAACGUUCUCAACUAUGACAGGCAAAACGCGUGCGCCGUUGAAUGGAGUUUAUCAUG,≤ -4.2
17,GGAUCUUCUCGAUCUAACAAAAAAGACAAAUCUGCCACAAAGCUUGAGAGCAUCUUCAGAUGCAGAGGCGGCAGCAUUCCGUGGUGCGGCAGCGCCAACGGUCUCAACUAUGACACGCAAAACGCGUGCUCCGUUGAAUGGAGUUUAUAAUG,≤ -4.2
18,GGAUCUUCUCGAUCUAACAAAAAAGACAAAUCUGCCACAAAGCUUGAGAGCAUCUUCAGAUGCAGAGGCGGCAGCGUUCGGUGGCGCGAGAGCGCCAACGUUCUCAACUAUGACACGCGAAACGCGUGCUCCGUUGAAUGGAGUUUAUCAUG,≤ -4.2
19,GGAUCUUCUCGAUCUAACAAAAAAGACAAAUCUGCCACAAAGCUUGAGAGCAUCUUCAGAUGCAGAGGCGGCAGCCUUCGGUGGCGUGAUAGCGCCAACGUUCUCAACUAUGACACGCAAAACGCGUGCUCCGUUGAAUGGAGUUUAUCAUG,-0.808

row,Variant,polymerase ribozyme fitness (log ratio)
1,GGAUCUUCUCGAUCUAACAAAAAAGACAAAUCUGCCACAAAGCUUGAGAGCAUCUUCAGAUGCAGAGGCGGCAGCCUUCGGUGGCGUGAUAACGCCAACGUUCUCAACUAUGACACGCAAAACGCGUGCUCCGUUGAAUGGAGUUUAUCGUG,-0.884
2,GGAUCUUCUCGAUCUAACAAAAAAGACAAAUCUGCCACAAAGCUUGAGAGCAUCUUCAGAUGCAGAGGCGGCAGCCUUCGGUGGCGCGAUAGCGCCAACGUUAUCAACUAUGACACGCAAAACGCGUGCUCCGUUGAAUGGAGUUUAUCAUG,-1.19
3,GGAUCUUCUCGAUCUAACAAAAAAGACAAAUCUGCCACAAAGCUUGAGAGCAUCUUCAGAUGCAGAGGCGGCAGCCUUCGGUGGCGCGAUAGCGCCAACGUUCUCAACUAUGACAUGCAAAACGCGUGCUCCGUUGAAUGGAGUUUAUCAUG,0.457
4,GGAUCUUCUCGAUCUAACAAAAAAGACAAAUCUGCCACAAAGCUUGAGAGCAUCUUCAUAUGCAGAGGCGGCAGCCUUCGGUGGCGCGAUAGCGCCAAGGUUCUCAACUAUGACACGCAAAACGCGUGCUCCAUUGAAUGGAGUUUAUCAUG,≤ -4.2
5,GGAUCUUCUCGAUCUAACAAAAAAGACAAAUCUGCCACAAAGCUUGAGAGCAUCUUCAGAUGCAGAGGCGGCAGCCUUCAGUGGCGCGAUAGCGCCAACGUUCUCAACCAUGACACGCAAAACGCGUGCUCCGUUGAAUGGAGUUUAUCAUG,≤ -4.2
6,GGAUCUUCUCGAUCUAACAAAAAAGACAAAUCUGCCACAAAGCUUGAGAGCAUCUUCAGAUGCAGAGGCGGCAGCCUUCGAUGGCGCGAUAGCGCCAACGUUCUCAACUAUGACACGCAAAACGCGUGCUCCGUUGAAUGGAGUUUAUCAUG,-0.536
7,GGAUCUUCUCGAUCUAACAAAAAAGACAAAUCUGCCACAAAGCUUGAGAGCAUCUUCAGAUGCAGAGGCGGCAGCCUUCGGUAGCGCGAUAGCGCCAACGUUCUCAACUAUGACACGCAAAACGCGUGCUCCGUUGAAUUGAGUUUAUCAUG,-3.64
8,GGAUCUUCUCGAUCUAACAAAAAAGACAAAUCUGCCACAAAGCUUGAGAGCAUCUUCAGAUGCAGAGGCGGCAGCCUUCGGUCGCGCGAGAGUGCCAACGUUCUCGACUAUGACACGCAAAACGUGUGCUCCGUUGAAUGGAGUUUAUCAUG,≤ -4.2
9,GGAUCUUCUCGAUCUAACAAAAAAGACAAAUCUGCCACAAAGCUUGAGAGCAUCUUCAGAUGCAGAGGCGGCAGCCUUCGGUGGCUCGAUAGCGCCAACGUUCUCAACUAUGACACGCAAAACGCGUGCUCCGUUGAAUGGAGUUUAUCAUG,-1.12
10,GGAUCUUCUCGAUCUAACAAAAAAGACAAAUCUGCCACAAAGCUUGAGAGCAUCUUCAGAUGCAGAGGCGGCAGCCUUCGGUGGCUCGAUAGCGCCAACGUUCUCAACUAUGACACGCUAAACGCGUGCUCCGUUGAAUGGAGUUUAUCAUG,-2.06
11,GGAUCUUCUCGAUCUAACAAAAAAGACAAAUCUGCCACAAAGCUUGAGAGCAUCUUCAGAUGCAGAGGCGGCAGCCUUCGGUGGCGCUAUAGCGCUAACGUUCUCAACUAUGACACGAAAAACGAGUGCUCCAUUGAAUGGAGUUUAUCAUG,≤ -4.2
12,GGAUCUUCUCGAUCUAACAAAAAAGACAAAUCUGCCACAAAGCUUGAGAGCAUCUUCAGAAGCAGAGGCGGCAGCCUUCGGUGGCGCGAUUGCGCCAACGUUCUCAACUAUGACACGCAAAACGCGUGCUCCGUUGAAUGGAGUUUAUCAUG,≤ -4.2
13,GGAUCUUCUCGAUCUAACAAAAAAGACAAAUCUGCCACAAAGCUUGAGAGCAUCUUCAGAUGCAGAGGCGGCAGCCUUCGGAGGCGCGUUAGCGCCAACGUUCUCAACUAUGACACGCGUAACGCUUGCUCCGUUGAAUGGAGUUUAUCAUG,-0.897
14,GGAUCUUCUCGAUCUAACAAAAAAGACAAAUCUGCCACAAAGCUUGAGAGCAUCUUCCGCUGCAGUGGCGGCAGCCUUCGGUGGCGCGAUAACGCCUACGUUCUCAACUAUGACACGCAAAACGCGUGCUCCUUUGAAUGCAGUUUAUCAUG,≤ -4.2
15,GGAUCUUCUCGAUCUAACAAAAAAGACAAAUCUGCCACAAAGCUUGAGAGCAUCUUCCGAUGCCGAGGCGGCAGCCUUCGGUGGCGCGAUAGAGCCUACGUUCUCAACUAUGACACGCAAAACGCGUGCUCCGUUGAAUGGAGUUUAACAUG,≤ -4.2
16,GGAUCUUCUCGAUCUAACAAAAAAGACAAAUCUGCCACAAAGCUUGAGAGCAUCUUCCGAUGCAGAGGCGGCAGCCUUCGGUGGCGCGAUGGCGCCAACGUUCUGAACUGUGACACGCAAAACGCGUGCUCCGUUGAAUGGAGUUUAUCAUG,≤ -4.2
17,GGAUCUUCUCGAUCUAACAAAAAAGACAAAUCUGCCACAAAGCUUGAGAGCAUCUUCCGAUGCAGAGGCGGCAGCCUUCGGUGGCGCGAUAGCGCCAUCGUUCUCAACUAUGACACGCAAAACGCGUGCUCCGUUGAAUGGAGUUUAUCAUG,-0.459
18,GGAUCUUCUCGAUCUAACAAAAAAGACAAAUCUGCCACAAAGCUUGAGAGCAUCUUCCGAUGCAGAGGCGGCAGCCUUCGGUGGCGCGAUAGCGCCAACGUUCUCAACUAUGACACGCAAAGCGCGUGCUCCGUUGAAUGGAGUUUAUCCUG,-3.46
19,GGAUCUUCUCGAUCUAACAAAAAAGACAAAUCUGCCACAAAGCUUGAGAGCAUCUUCCGAUGGAGAGUCGGCAGCCUUCGGUGGCGCGAUAGCGCCAACGUUCUCAACUAUGACACGCAAAAUGCGUGCUCCGUUGAAUGGAGUUUAUCAUG,≤ -4.2
